Reference: PubChem BioAssay AID1508642 (National Center for Advancing Translational Sciences (NCATS), 2021)
Among all 43,000 compounds or so, about 200 (0.47%) were called active. About 12% were inconclusive and are not listed. The call rests on the fitted dose curve; in most records, active means well fitted cell-killing curve with a large enough effect; inconclusive means small, poorly fitted or top-dose-only effect, or effect the other way; inactive means flat fitted curve, though single readings scatter. Some of the results follow.

Assay: Cell viability qHTS assay in S16 Pmp22-F2sN cells; further: nearly all actives have a fitted effect of over 65% in size
Details: S16 Pmp22-F2sN Schwann cells (luciferase reporters placed in the Pmp22 gene) viability, CellTiter-Glo, 24 h; series mostly up to 57.5 µM; activity change, negative = cytotoxicity: at the top concentration
In short: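 Rat S16 Schwann reporter line, 24 h treatment with library compounds delivered at 23 nL per well. Cell viability by CellTiter-Glo luminescence.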
On the % scale 0 is the no-effect control and ±100 the full control effect.

| SMILES | activity change, negative = cytotoxicity |
| --- | --- |
| COc1ccccc1CNC(=O)CN1C(=O)c2cccnc2Oc2ccccc21 | inactive: -2.15% |
| CCOc1ccc(CNC(=O)C2CCN(C(=O)c3sccc3-n3cccc3)CC2)cc1 | inactive: -5.61% |
| Cc1ccc(-n2c(SCCC(C)C)nc3sc4c(c3c2=O)CC(C)(C)OC4)cc1 | inactive: 1.72% |
| COc1ccc(-c2cc(C(C)=O)c(C)n2CCC(=O)NC2CCCCC2)cc1 | inactive: 2.55% |
| COc1ccc(OCCSc2nc3ccccc3n2CC(=O)N2CCOCC2)cc1 | inactive: -3.95% |
| COc1ccc(NC(=O)CCCc2nnc3n(CCC(C)C)c(=O)c4sccc4n23)cc1Cl | inactive: 1.79% |
| O=c1c2c3c(sc2n(Cc2cc(=O)n4ccccc4n2)c(=O)n1-c1ccccc1)CCC3 | inactive: -9.06% |
| Cc1ccc(C)c(NC(=O)c2nnn(CC(=O)Nc3cccc(C)c3C)c2N)c1 | inactive: 0.85% |
| O=c1cc(CN2CCN(S(=O)(=O)c3ccccc3)CC2)nc2sc(-c3ccccc3Cl)nn12 | inactive: 11% |
| O=C(CCSCc1ccccc1Cl)N1CCN(c2ccc(F)cc2)CC1 | inactive: -7.35% |
| CCc1ccc(C(=O)c2cn(CC(=O)Nc3ccc4c(c3)OCCO4)c3ccc(C)cc3c2=O)cc1 | inactive: -0.132% |
| CC(=O)c1ccc(NC(=O)COc2ccccc2-c2nc(-c3ccccc3)no2)cc1 | inactive: 3.1% |
| COCc1cc(C)nc2sc3c(c12)NC(c1ccccc1C(=O)O)N(c1ccc(OC)cc1)C3=O (configuration not stated) | inactive: 3.07% |
| O=C(CS(=O)(=O)c1nc(-c2ccc(Cl)cc2)cn1-c1ccccc1)Nc1ccc(F)cc1F | inactive: -28.7% |
| Cc1ccc(NC(=O)C(Cc2ccccc2)NS(=O)(=O)c2cccs2)cc1Cl (configuration not stated) | inactive: 5.01% |
| COc1ccc(CC(=O)Nc2ccc(-c3nc4ccccc4s3)c(C)c2)cc1 | inactive: 2.4% |
| COc1ccc(NC(=O)c2ccc3oc(=O)c(S(=O)(=O)c4ccc(F)cc4)cc3c2)c(OC)c1 | inactive: -1.58% |
| CC(C)c1nc2sc3c(N4CCCCC4)ncnc3c2c2c1CCCC2 | inactive: 8.64% |
| CCOc1ccc(-n2c(SCC(=O)c3ccccc3)nc3c([nH]c4ccccc43)c2=O)cc1 | inactive: 2.42% |
| COCC(C)Nc1ncnc2c1cnn2-c1cccc(Cl)c1 (configuration not stated) | inactive: -2.58% |
| COc1ccc(C(=O)Oc2ccc(C3NC(=O)c4c(sc5c4CCN(C)C5)N3)cc2OC)cc1 (configuration not stated) | inactive: 4.46% |
| Cc1ccc(Cl)cc1N1CCN(C(=O)c2cc(S(=O)(=O)N3CCCCC3)cn2C)CC1 | inactive: -0.317% |
| COC(=O)c1ccc(CSc2nc3ccncc3n2Cc2ccc(F)cc2)cc1 | inactive: 9.36% |
| COc1ccc2cc3c(N)nn(C(=O)c4ccc(F)cc4Cl)c3nc2c1 | inactive: -21.9% |
| CCn1c(=O)n(CC2CCC(C(=O)NC(C)C)CC2)c(=O)c2sccc21 (configuration not stated) | inactive: -5.9% |

| SMILES | activity change, negative = cytotoxicity |
| --- | --- |
| CCOC(=O)c1c(C)[nH]c(C)c1S(=O)(=O)N1CCC(C(=O)Nc2ccc(OC)c(OC)c2)CC1 | inactive: -13.7% |
| CCN1CCN(c2ncnc3c2cnn3-c2ccc(F)cc2)CC1 | inactive: 24% |
| CCOC(=O)c1cc(CC)sc1NC(=O)COc1ccccc1C | inactive: 6.7% |
| COc1ccc(C(=O)NCC(c2ccc3c(c2)OCO3)N2CCN(C)CC2)cc1OC (configuration not stated) | inactive: 5.36% |
| COC(=O)c1ccccc1NC(=O)CCc1c(C)nc2cc(-c3ccc(Cl)cc3)nn2c1C | inactive: -3.8% |
| CC(=O)c1cc(-c2ccc(F)cc2)n(CCC(=O)NC2CCCCC2)c1C | inactive: 2.31% |
| CCC(C(=O)NCCc1ccc(SC)cc1)n1nc(C)c2c(C)n(-c3ccc(C)cc3)nc2c1=O (configuration not stated) | inactive: -15.3% |
| COc1cc(C2CC(=O)N(CC(=O)Nc3ccccc3F)c3ccccc3S2)cc(OC)c1OC (configuration not stated) | inactive: -0.0778% |
| Cc1ccc(CCNC(=O)c2ccc(CSc3nc4ccncc4n3Cc3ccc(F)cc3)cc2)cc1 | inactive: -3.88% |
| Cc1ccc(-n2nc(CO)c(C(=O)NC(C)c3ccccc3)n2)cc1C (configuration not stated) | inactive: -16.5% |
| CSc1ccc(CCNC(=O)CCc2c(C)nc3c4cccnc4nn3c2C)cc1 | inactive: -4.54% |
| COc1cccc(CNCc2c(C(=O)O)c(C)n(Cc3ccc(F)cc3Cl)c2C)c1OC | inactive: -1.33% |
| O=C(CC1N=C2c3ccccc3N=C(SCc3cccc(F)c3)N2C1=O)NC1CCCCC1 (configuration not stated) | inactive: -8.78% |
| CCSc1nc2sc3c(c2c(=O)n1-c1ccc(C)cc1)CCCC3 | inactive: 17.8% |
| CC(C)CNc1cc(NC2CCCCC2)c2c3c(onc13)-c1ccccc1C2=O | inactive: -20.6% |
| Cc1ccc(Cl)cc1N1CCN(C(=O)c2cn(C)c3ccc(S(=O)(=O)N4CCCCC4)cc3c2=O)CC1 | inactive: 0.359% |
| Cc1ccc(-n2nc(C)c3c(C)c(CCC(=O)NCc4ccccc4Cl)c(C)nc32)cc1 | inactive: -4.25% |
| COc1ccc(C2=C(C(C)=O)Sc3nnc(-c4ccccc4)n3N2C(C)=O)cc1 | inactive: -2.41% |
| CC(=O)NCCNC(=O)c1ccc2c(=O)n(CCc3ccccc3)c(=O)[nH]c2c1 | inactive: 10.4% |
| O=C(Cn1c(=O)n(Cc2ccco2)c(=O)c2sc3ccccc3c21)Nc1ccccc1C(F)(F)F | inactive: 4.63% |
| Cc1nc2nc(C)c(CCC(=O)NCc3cccc(Cl)c3)c(C)n2n1 | inactive: 11.5% |
| CCOc1cc(C2NC(=O)c3c(sc4c3CCN(C)C4)N2)ccc1OC(=O)c1ccc(F)cc1 (configuration not stated) | inactive: 1.55% |
| Fc1ccc(Cc2cn3cc(-c4ccc(F)cc4)nc3s2)cc1 | inactive: 20.1% |
| COc1cc(NC(=O)c2cc3cc4cc(OC)ccc4nc3o2)cc(OC)c1 | inactive: 19.3% |
| CCOC(=O)c1cnc2c(ccc3ccccc32)c1Nc1ccc(OC)cc1OC | inactive: -21.4% |

| SMILES | activity change, negative = cytotoxicity |
| --- | --- |
| COc1cccc(N=C2SC(C(=O)Nc3cccc(Cl)c3)CC(=O)N2C)c1 (configuration not stated) | inactive: 6.35% |
| Cc1ccccc1C(=O)N1CCCCC1CCN1CCCCC1 (configuration not stated) | inactive: 19.5% |
| COc1ccc(N2CCN(C(=O)CCc3c(C)nc4cc(-c5cccc(F)c5)nn4c3C)CC2)cc1 | inactive: 16.7% |
| CC(=O)N1CCc2c(sc3c2c(=O)n(-c2ccccc2)c(=O)n3Cc2cccc(C(F)(F)F)c2)C1 | inactive: -13.8% |
| COc1ccc(C)cc1NC(=O)c1oc2ccc(S(=O)(=O)N3CCOCC3)cc2c1C | inactive: -8.37% |
| COC(=O)c1c(NC(=O)COc2ccc(Cl)cc2C)sc2c1CCCCC2 | inactive: 3.33% |
| COc1ccc(OC)c(NC(=O)CSC2=Nc3ccccc3C3=NC(CCC(=O)NC4CCCCC4)C(=O)N23)c1 (configuration not stated) | inactive: 0.969% |
| CSc1ncc(C(=O)N2CCN(c3ccc(Cl)cc3)CC2)c(C)n1 | inactive: 5.11% |
| CCc1nn(CC(=O)NCCCN2CCN(C)CC2)c(=O)c2cc3occc3n12 | inactive: 0.287% |
| O=C(Cc1ccc(F)cc1)Nc1cccc(-c2nc3cccnc3s2)c1 | inactive: 18.7% |
| Cc1cccc(N2CCN(C(=O)CCCn3ncn4c(cc5occc54)c3=O)CC2)c1C | inactive: -5.56% |
| CCOc1cc(CNCCSc2nnnn2C)cc(Cl)c1OCc1ccc(Cl)cc1 | inactive: -12.5% |
| CCc1ccc(NC(=O)CCc2c(C)n(C)c3cc(-c4ccccc4C)nn3c2=O)cc1 | inactive: 7.56% |
| Cc1ccc(CCNS(=O)(=O)c2ccc3c(c2)CCN3C(=O)CCC(=O)O)cc1 | inactive: 1.85% |
| COc1ccc(CCNC(=O)C2=C(C)C(=O)OC23CCCCC3)c(OC)c1 | inactive: -3.26% |
| Cc1ccc(CNC(=O)c2cc(Sc3ccc(F)cc3F)nc3ccccc23)cc1 | inactive: -0.442% |
| CCC(C(=O)N(C)Cc1ccccc1)n1nc(C)c2sc3ccccc3c2c1=O (configuration not stated) | inactive: 8.14% |
| COc1ccc(NC(=O)C2CCCN(S(=O)(=O)c3ccc4[nH]c(=O)ccc4c3)C2)cc1OC (configuration not stated) | inactive: 0.549% |
| CC(=O)N1CCCC1c1nc2ccccc2n1Cc1cc(C)ccc1C (configuration not stated) | inactive: 11.8% |
| CCOC(=O)N1CCN(S(=O)(=O)N2CCCC(C(=O)NCc3ccccc3OC)C2)CC1 (configuration not stated) | inactive: -1.31% |
| Cc1ccc2ccc3cc(C(=O)Nc4ccc(C)c(F)c4)nc3c2[nH]1 | inactive: -2.04% |
| CCOC(=O)c1ccc(CN(Cc2ccc(F)cc2)S(=O)(=O)c2cc(C(=O)Nc3ccccc3CC)ccc2F)cc1 | inactive: -10.7% |
| O=C(Nc1ccccc1)N(Cc1cccs1)c1ccc(Cl)cc1 | inactive: 19.1% |
| Cc1ccc(-n2c(=O)[nH]c3sc4c(c3c2=O)CCCC4)cc1 | inactive: 5.24% |
| O=S(=O)(c1ccc(Cl)cc1)c1nnn2c1nc(NCc1ccccc1)c1sccc12 | inactive: 21.8% |

| SMILES | activity change, negative = cytotoxicity |
| --- | --- |
| CC(=O)N(Cc1cccnc1)c1nc2cc(C)cc(C)c2s1 | inactive: -11% |
| CCOc1ccc(NC(=O)CCc2c(C)nc3c(c(C)nn3-c3ccccc3)c2C)cc1 | inactive: 13.8% |
| Cc1ccc(S(=O)(=O)n2nc(C)c(S(=O)(=O)N3CCCCC3)c2C)cc1 | inactive: 10.8% |
| CCc1ccc(CN(Cc2ccco2)C(=O)c2ccc(C)cc2)cc1 | inactive: -0.0032% |
| CCCCN(CC)C(=O)C1CCC(CNS(=O)(=O)c2cccc3nsnc23)CC1 (configuration not stated) | inactive: -2.98% |
| COc1ccccc1C(=O)N(Cc1ccco1)Cc1ccccc1F | inactive: -14.8% |
| COc1cc(OC)c(NC(=O)CN(C)S(=O)(=O)c2ccc3c(c2)CCCC(=O)N3)cc1Cl | inactive: -7.74% |
| CCc1ccc(C(=O)c2cn(CC(=O)Nc3cccc(C)c3C)c3nc(C)ccc3c2=O)cc1 | inactive: 3.37% |
| COc1cccc(OCc2cc(=O)n3cc(C)sc3n2)c1 | inactive: 1.45% |
| CCOc1ccc(OCC)c(-n2cnnn2)c1 | inactive: -2.43% |
| Cc1c(NC(=O)Nc2ccc(Cl)c(C(F)(F)F)c2)c(=O)n(-c2ccccc2)n1C | inactive: -12.7% |
| Fc1ccccc1N1CCN(c2ncnc3onc(-c4cccc(Cl)c4)c23)CC1 | inactive: -19.9% |
| COc1ccc(-n2c(SCC(=O)NC3CCCCC3)nc3c([nH]c4ccccc43)c2=O)cc1 | inactive: 11% |
| COc1ccc(-c2cc3c(=O)n(CC(=O)Nc4cc(C)ccc4C)ccn3n2)cc1 | inactive: -3.68% |
| Cc1cccn2c(=O)cc(COc3ccc(NC(=O)C(C)Oc4ccccc4)cc3)nc12 (configuration not stated) | inactive: -11.3% |
| NS(=O)(=O)c1ccc(NC(=O)CN2CCN(c3ccc(F)cc3)CC2)cc1 | inactive: 0.364% |
| CCN(CC)CCCNC(=O)C(=O)Nc1ccc2nc3n(c(=O)c2c1)CCCCC3 | inactive: 16.5% |
| Cc1ccc(Cn2ccnc2SCC(=O)Nc2ccc3c(c2)OCCO3)cc1 | inactive: -2.07% |
| COc1ccc(/C=C/C(=O)Nc2ccc(Cl)cc2Cl)cc1 | inactive: -3.18% |
| CC(=O)Nc1cccc(NC(=O)CSc2nccn2Cc2ccco2)c1 | inactive: -2.29% |
| Cc1ccc(CNC(=O)c2cccc(NC(=O)N3CCSc4ncccc43)c2)cc1 | inactive: -18.3% |
| Cc1ccc(S(=O)(=O)C(CNC(=O)COc2ccc(Cl)cc2)c2ccco2)cc1 (configuration not stated) | inactive: -25.2% |
